The campaign covered roughly 48,000 compounds. About 120 (0.25%) were called active. About 4% were inconclusive and are not listed. Calls follow the shape of the dose curve; as a rule, active = well fitted activation curve with a large enough effect; inconclusive = small, poorly fitted or top-dose-only effect, or another doubt; inactive = no such curve, though single readings can be large or run the other way. This is one part of the list.
Experiment: Primary qHTS for Identification of Small Molecule Activators of Huntingtin-Antisense Promoter Activity; also: nearly all actives have a fitted effect of over 55% in size
Conditions: HEK293 HTT-AS promoter firefly luciferase reporter (activity 0% = vehicle and -100% = no light), 24 h; series mostly up to 57.5 µM; activity change, positive = activation: at the top concentration
How it was run: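 Quantitative HTS used concentration series of up to 57.5 uM final on HEK293 luciferase reporter cells, 24 h at 37 degrees C. Readout was Dual-Glo firefly luminescence.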

Activity change, positive = activation, inactive:
COc1ccccc1N1CCN(C(=O)c2cc3c(=O)n(Cc4cccnc4)ccc3nc2C)CC1 -12.1%
O=C(Cn1c(=O)n(-c2ccccc2)c(=O)c2c3c(sc21)CCCC3)Nc1ccc(F)cc1 -13.1%
Cc1ccccc1OCC(=O)Nc1nnc(S(=O)(=O)N(C)c2ccccc2)s1 -18.3%
CCN1CCN(c2ncc3c(n2)CCN(Cc2ccc(C)s2)C3)CC1 -12.4%
Oc1cccc2[nH]ccc12 4.1%
Cc1cccc(CCNC(=O)c2nc(-c3ccc(Cl)cc3)n3c2CCCCC3)c1 -15.7%
COc1ccc(Br)cc1CNC(=O)c1cc2c(=O)n(C)c3ccccc3c2s1 -8.09%
CCn1c2c(c(=O)n3ncc(C(=O)Nc4ccc(F)c(Cl)c4)c13)CN(Cc1ccc(OC)cc1)CC2 -5.51%
CN(C)[C@@H]1C(=O)C(C(=O)NCN2CCCC2)=C(O)[C@@]2(O)C(=O)C3=C(O)c4c(O)cccc4[C@@](C)(O)C3C[C@@H]12 (some centres not stated) -6.22%
CC(C)CC(=O)N(Cc1ccccc1)S(=O)(=O)c1ccc2c(c1)oc(=O)n2C -35.4%
CCOc1ccc(C(=O)OCc2cc(=O)n3nc(C(C)C)sc3n2)cc1 5.01%
CO/N=C(/C(=O)N[C@@H]1C(=O)N2C(C(=O)[O-])=C(C[n+]3ccn4ncccc43)CS[C@H]12)c1nsc(N)n1 0.2%
COc1cccc(NC(=O)CN2C(=O)C3(SCC(=O)N3c3cc(C)cc(C)c3)c3ccccc32)c1 (configuration not stated) -26.3%
Cc1ccc(CN2C(=O)N(c3ccc(C)c(Cl)c3)S(=O)(=O)c3ccccc32)cc1 -27.2%
Cc1ccc(NC(=O)C2CCN(S(=O)(=O)c3c(C)noc3C)CC2)cc1C -5.85%
COC(=O)c1cc2oc(C)cc2n1Cc1ccc(Cl)cc1 11.8%
CCOc1ccc(CNC(=O)c2cnc(SC)nc2C)cc1 -27%
COC(=O)c1c(-c2cccs2)csc1NC(=O)COc1ccc(C(C)C)cc1 -24.8%
CCOC(=O)C1CCN(C(=O)c2nn(-c3ccc(C)cc3)c(=O)n(C)c2=O)CC1 -10.4%
O=C(Nc1ccc(Cl)cc1C(F)(F)F)c1cc(S(=O)(=O)NCc2ccccc2)ccc1F -26.8%
CCc1ccc(CNC(=O)c2ccc(CS(=O)(=O)Cc3ccccc3C)o2)cc1 -37.5%
CCN(CC)C(=O)C1CCN(C(=O)c2cnn(-c3ccccc3)c2-n2cccc2)CC1 -16.5%
O=C(CSc1nccn1C1CCCC1)Nc1ccccc1 25.4%
CCOC(=O)CSc1nc2ccccc2n2c(C)nnc12 0.692%
CCc1ccccc1NC(=O)CSc1nccn1C -14.6%
CCOC(=O)c1cc(OC(=O)c2cc(Cl)ccc2OC)n(-c2ccccc2)n1 -3.87%
CCc1ccc(S(=O)(=O)c2nnn3c2nc(NCCC(C)C)c2cc(Cl)ccc23)cc1 -3.38%
CC(=O)c1ccc(OC(=O)c2c(-c3ccccc3Cl)noc2C)cc1 -20.1%
COc1ccc2c(c1)c(CC(=O)Nc1cc(C)c(OC)c(C)c1)c(C)n2C(=O)c1ccc(Cl)cc1 -23.3%
O=C(COc1ccc(Cl)cc1Cl)Nc1ccc(C(=O)OC2CCCCC2)cc1 -22.3%
Cn1nc(C(=O)Nc2cccc(C(F)(F)F)c2)c2c1-c1ccccc1S(=O)(=O)C2 8.38%
CCCN(CCC)S(=O)(=O)c1ccc(C(=O)N2CCn3c4c(c5cc(C)ccc53)CCCC42)cc1 (configuration not stated) -29.8%
CCOc1ccc(NS(=O)(=O)c2ccc3[nH]cc(C(=O)NCCc4ccccc4)c(=O)c3c2)cc1 3.41%
COc1ccccc1Nc1ncnc2c1nc1n2CCCCC1 -2.95%
Cn1c(SCC(=O)Nc2ccccc2F)nc2c([nH]c3ccccc32)c1=O -19.3%
CC(=O)c1cc(-c2ccccc2)n(CC(=O)Nc2ccc(C)cc2C)c1C -9.25%
Nc1nonc1-c1nc2ccccc2n1CC(=O)Nc1ccc(F)cc1 -5.15%
Cc1ccc(S(=O)(=O)c2cn(CC(=O)Nc3ccccc3)c3cc4c(cc3c2=O)OCO4)cc1 -16.4%
Cc1ccc(-c2nc(CS(=O)CC(=O)O)c(C)o2)cc1 (configuration not stated) -5.85%
Fc1ccc(C(c2ccc(F)cc2)N2CCNCC2)cc1 -2%
CCOc1ccccc1NC(=O)NC(CC)c1c(-n2cccc2)sc2c1CCN(C)C2 (configuration not stated) -8.09%
Cc1cccc(N2CCN(C(=O)c3ccc4c(c3)CCN4S(=O)(=O)c3ccccc3)CC2)c1C -22.5%
CCc1ccc(Nc2nc3ccccc3c3nnc(C)n23)cc1 -14.1%
Cc1cccc(C(=O)NCc2cn3cccc(C)c3n2)c1 -5.79%
CC(C)c1ccc(Cc2cnc(NC(=O)c3ccc4c(c3)CC(c3ccccc3)OC4=O)s2)cc1 (configuration not stated) -68.4%
O=c1cc(N2CCN(c3ccc(F)cc3)CC2)[nH]c(=O)n1-c1cccc(Br)c1 -29%
Cc1ccc(-n2c(=O)c3cccnc3n2CC(=O)Nc2ccccc2C(F)(F)F)cc1C -18.8%
COc1cccc(CNC(=O)C2CCCN(S(=O)(=O)c3cn(C)cn3)C2)c1 (configuration not stated) -4.12%
CC[C@H](C)NC(=O)CCCc1nnc2n(CCC(C)C)c(=O)c3sccc3n12 -8.97%
Cc1ccc(C)c(NC(=O)C(NS(=O)(=O)c2ccc3c(c2)CCC(=O)N3)c2ccccc2)c1 (configuration not stated) -13.1%
COc1ccccc1OC(C)C(=O)N1CCN(CCc2ccccn2)CC1 (configuration not stated) -6.38%
COc1ccc(-c2cn3c(n2)sc2cc(C(=O)NC4CCCCC4)ccc23)cc1 -13.3%
Cc1ccnc(NC(c2cc(C)ccc2O)c2ccc3cccnc3c2O)c1 (configuration not stated) -33.9%
COc1ccc(S(=O)(=O)N(C(=O)c2ccncc2)c2ccc3oc(C)c(C(C)=O)c3c2)cc1 -50.8%
Cc1ccc(CNC(=O)C2CCN(S(=O)(=O)c3c(C)noc3/C=C/c3ccccc3F)CC2)o1 1.95%
COc1ccccc1N1CCN(Cc2cc(COC(C)C)c3cccnc3c2O)CC1 -33.5%
CCOC(=O)C1CCCN(C(=O)Cn2nc(C)n3c(cc4c(OC)cccc43)c2=O)C1 (configuration not stated) -17.3%
CCC(C)n1c(=N)c(C(=O)NC2CCCCC2)cc2c(=O)n3cc(C)ccc3nc21 (configuration not stated) -9.32%
CCC(=O)N1c2ccccc2CC1C(=O)NCCN1CCN(c2ccccc2F)CC1 (configuration not stated) -11.6%
Cc1ccc(NC(=O)CSc2nc(=O)n(CCN3CCOCC3)c3c2CCC3)cc1Cl -29.8%
Cn1c(=O)nc2n(-c3ccc(Br)cc3)c3cccc(Cl)c3cc-2c1=O -8.98%
Cc1ccc(C)c(N2CCN(S(=O)(=O)c3ccc(C4CCCCC4)cc3)CC2)c1 -10.4%
CC(C)(C)OC(=O)N1CCC(c2c(C(=O)NCc3ccccn3)cnn2-c2ccccc2Cl)CC1 -7.7%
CCCc1noc(-c2ccc(NCc3ccccc3OC)c([N+](=O)[O-])c2)n1 -14.2%
CC(C)c1ccc(NC(=O)CSC2=Nc3ccccc3C3=NC(CC(=O)NCCc4ccccc4)C(=O)N23)cc1 (configuration not stated) -28.5%
Cc1[nH]c2ccccc2c1SCCNC(=O)c1ccc(F)cc1 -29.2%
COc1ccc(Cl)cc1NC(=O)c1c(NCc2cccs2)sc2c1CCC(C)C2 (configuration not stated) -20.7%
CCOc1ccccc1NC(=O)CSc1nc(-c2cccs2)cc(C(F)(F)F)n1 -2.95%
Cc1cc(-c2ccc(C)c(S(=O)(=O)NCCc3ccccc3)c2)on1 -17.7%
O=C(Nc1cc(-c2nc3ccccc3o2)ccc1Cl)c1cc([N+](=O)[O-])ccc1N1CCOCC1 4.83%
COc1cccc(CNC(=O)C2CCN(c3ncnc4c3nc3n4CCCCC3)CC2)c1 -18.1%
O=C1CCC[C@@H]2[C@H]3CCC[N+]4([O-])CCC[C@@H](CN12)[C@@H]34 (some centres not stated) -12.1%
Cn1cc(-c2cc3n(n2)CCC(=O)N3CC(=O)NCc2ccccc2)c2ccccc21 -10.4%
Cc1ccccc1C(=O)Nc1ccc2nc(SCC(=O)N(C)c3ccccc3)sc2c1 -32%
CN(C)C1(CNC(=O)COc2cccc(Cl)c2)CCCCC1 -19.5%
Cc1cccc(Cn2c(SCc3ccc(C(=O)NCc4cccs4)cc3)nc3ccncc32)c1 -21.6%
COc1ccc2c(c1)Cc1sc(NC(=O)c3cccc(Cl)c3)nc1-2 2.35%
CC1CCN(S(=O)(=O)c2ccc3nc(N4CCN(c5ccccc5F)CC4)ccc3c2)CC1 -5.55%
COc1ccc(/C=C(\C#N)c2nc(-c3cc4ccccc4oc3=O)cs2)cc1OC -11.7%
Cc1ccc(-c2onc(C)c2C)cc1S(=O)(=O)NC1CCC(C)CC1 (configuration not stated) -46.8%
CCOc1cc(C2CC(=O)Nc3c2c(C)nn3-c2nc(C)cc(C)n2)ccc1O (configuration not stated) -2.79%
COC(=O)c1cccnc1-n1c(=O)c2cccnc2n(CC(=O)Nc2cccc(C(F)(F)F)c2)c1=O -23.2%
COc1cc(C)ccc1OCCSc1nnc(-c2cccs2)o1 2.27%
FC(F)(F)c1cccc(N2CCN(Cc3nnc(-c4ccccc4)o3)CC2)c1 -12.1%
CCOc1ccccc1CNC(=O)c1ccc(Cn2c(=O)c3cccn3c3cccnc32)cc1 -21.7%
CC(C)c1ccc(-c2noc(SCC(=O)N3CCCCC3)n2)cc1 17.2%
CCCN(CCC)CCCNC(=O)c1nn(C)c2c1CS(=O)(=O)c1ccccc1-2 -10.8%
O=c1c2ccccc2nc2sc(Nc3cccc(C(F)(F)F)c3)nn12 13.7%
COC(=O)c1cc(Cl)ccc1NS(=O)(=O)C(F)(F)F -1.74%
CCN(CC)c1ccc(C2C(C(N)=O)=C(C)Nc3nc(SCc4ccccc4)nn32)cc1 (configuration not stated) -56.3%
CSc1cccc(NS(=O)(=O)c2ccc3[nH]cc(C(=O)N4CCCCCC4)c(=O)c3c2)c1 -2.46%
Cc1cccc(Cc2c(C)nc3nc(SCC(=O)NC4CCCCC4)nn3c2C)c1 -15.8%
Fc1ccc(-c2noc3ncnc(NCc4cccc(Cl)c4)c23)cc1 -33.4%
CCOC(=O)c1nnc2c(-c3ccc(F)cc3)c(C)nn2c1N 1.04%
COc1ccccc1CNC(=O)c1cnn(-c2ccc(F)cc2F)c1C1CCN(C(=O)OC(C)(C)C)CC1 -20.2%
Cc1ccc(N2CC(NC(=O)Cc3ccc(F)cc3)CC2=O)cc1C (configuration not stated) -9.03%
COCCN1CN=C(NS(=O)(=O)c2ccc(C)cc2)NC1 -12.5%

Reference: PubChem BioAssay AID1508624 (National Center for Advancing Translational Sciences (NCATS), 2021)
